Laboratory results taken from patent US11806359B2 (priority 2020, dated 2023).

Tests used:
Zikavirus = conditions: Barrows et al. 2016; cited from earlier work
[1] = tested on: Zika virus (ZIKV strain PRVABC59); type: cell-based; conditions: Vero E6 cells; for antiviral activity against Zika virus: MOI 0.2, 1 hr exposure, 48 hr incubation
huPBMCs = test: Cytotoxicity/apoptosis in primary huPBMCs, Annexin V-FITC/PI staining; type: cell-based, human; conditions: lowest concentration, 72 hrs
Description: Primary buffy-coat huPBMCs were isolated and stimulated with phytohemagglutinin (PHA) and cultured in the presence of recombinant human interleukin-2 (hIL-2). The cells were then treated for 72 hrs with increasing concentrations of oleandrin or a N. oleander extract, or with increasing volumes of the Vehicle. The samples were subsequently stained with Annexin V-FITC and PI and the relative percentages of apoptotic (i.e., Annexin V-FITC and/or PI-positive) cells per field were quantified by confocal fluorescence-microscopy and counting in-triplicate.
Cytotoxic effects of the Vehicle control, N. oleander extract, and the oleandrin compound were assessed by treating primary huPBMCs for 72 hrs, and then the cultures were stained with Annexin V-FITC and PI. The relative percentages of apoptotic (i.e., Annexin V-FITC and/or PI-positive) cells were quantified by fluorescence-microscopy and counting triplicate visual fields using a 20× objective lens. The total numbers of cells were determined using DIC phase-contrast microscopy. Cyclophosphamide (50 μM)-treated cells were included as a positive control for apoptosis. NA indicates the number of cells in this sample was too low for accurate assessment due to higher toxicity. […]

| Compound | antiviral activity against Zika virus (Zikavirus) | antiviral activity against Zika virus [1] | cytotoxicity in huPBMCs (huPBMCs) | antiviral activity against Zika virus relative to digoxin ([1]; MOI 0.2) [fold] |
| --- | --- | --- | --- | --- |
| C[C@H]1O[C@@H](O[C@H]2[C@@H](O)C[C@H](O[C@H]3[C@@H](O)C[C@H](O[C@H]4CC[C@@]5(C)[C@H](CC[C@@H]6[C@@H]5C[C@@H](O)[C@]5(C)[C@@H](C7=CC(=O)OC7)CC[C@]65O)C4)O[C@@H]3C)O[C@@H]2C)C[C@H](O)[C@@H]1O [digoxin, reference compound] | demonstrates antiviral activity against Zikavirus | antiviral activity | – | – |
| CO[C@H]1C[C@H](O[C@H]2CC[C@@]3(C)[C@H](CC[C@@H]4[C@@H]3CC[C@]3(C)[C@@H](C5=CC(=O)OC5)[C@@H](OC(C)=O)C[C@]43O)C2)O[C@@H](C)[C@@H]1O [oleandrin] | – | antiviral activity | 35-37% | ~8 |
